Screen size: about 39,000 compounds; about 220 (0.56%) showed activity. The list shows a part of the results.
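Also: static incubation at 37 °C against the wild-type strain, values averaged over two biological replicates.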

For this test, the system named is Escherichia coli K-12 BW25113. Description: relative growth (OD600 normalised to plate interquartile mean) (fraction); higher = less growth inhibition, active = 0.2 or less. The note with it: 50 µM; LB; incubation time: overnight (16-24 h).
For the compound `C[C@@H]1CN([C@H](C)CO)C(=O)c2c(c3ccccc3n2C)-c2ccccc2CO[C@H]1CN(C)C(=O)c1ccc(F)cc1`, the relative growth was inactive: 1.02.

Take `C[C@@H]1CN([C@H](C)CO)C(=O)Cc2cc(NC(=O)Cn3cnnn3)ccc2O[C@H]1CN(C)Cc1ccc2c(c1)OCO2`: the relative growth is inactive: 0.995. `CC(C)(C)[S@@](=O)N1Cc2cc(C(=O)NCCN3CCCCC3)nc(-c3cccc(-c4cccc(C#N)c4)c3)c2[C@H]1CCO`: the relative growth is inactive: 1.01. For the compound `COc1ccc(NC(=O)N(C)C[C@@H]2OCc3cnnn3CCCC(=O)N([C@H](C)CO)C[C@H]2C)c(OC)c1`, the relative growth is inactive: 0.993.

As to `CC(C)NC(=O)Nc1cccc2c1O[C@H](CN(C)Cc1ccc(-c3ccccc3)cc1)[C@H](C)CN([C@H](C)CO)C2=O`, the relative growth is inactive: 1.01.

Turning to `CCOC(=O)CCCCCC(=O)Nc1ccc2c(c1)C(=O)N([C@@H](C)CO)C[C@H](C)[C@H](CN(C)S(=O)(=O)c1ccc(OC)cc1)OCCCC[C@H](C)O2`, the relative growth was inactive: 1.02.

As to `Cc1cc(C(=O)Nc2cccc3c2O[C@@H](CN(C)S(=O)(=O)c2cccs2)[C@@H](C)CN([C@@H](C)CO)C3=O)n(C)n1`, the relative growth is inactive: 0.991. The result for `C[C@@H]1CN([C@@H](C)CO)C(=O)c2cccc(NS(=O)(=O)c3ccc(F)cc3)c2O[C@H]1CN(C)C(=O)Nc1ccc(C(F)(F)F)cc1` reads inactive: 0.945; that for `Cc1ccc(S(=O)(=O)Nc2cccc3c2O[C@H](CN(C)S(=O)(=O)c2ccccc2)[C@@H](C)CN([C@H](C)CO)C3=O)cc1`, inactive: 1.02. Turning to `O=C(C[C@H]1CC[C@@H]2[C@H](COC[C@@H](O)CN2S(=O)(=O)c2cccc(Cl)c2)O1)NCCCN1CCOCC1`, the relative growth is inactive: 0.982.

Take `CCc1nc2ccc(C(=O)Nc3cc(-c4ccccc4)ccc3OC)cn2c1N(C)Cc1ccc(OC)cc1`: the relative growth was inactive: 1.03. The result for `Cc1noc(C)c1S(=O)(=O)Nc1ccc2c(c1)CC(=O)N([C@H](C)CO)C[C@H](C)[C@H](CN(C)Cc1ccncc1)O2` reads inactive: 1.01; that for `Cc1ccc(S(=O)(=O)N(C)C[C@H]2Oc3ccc(NC(=O)Nc4cccc5ccccc45)cc3CC(=O)N([C@@H](C)CO)C[C@H]2C)cc1`, inactive: 1.02. In the case of `C[C@H](CO)N1C[C@H](C)[C@H](CN(C)Cc2cccc3c2OCCCO3)OCc2cnnn2CCCC1=O`, the relative growth is inactive: 0.964. With `Cl.NCCCCC(N)C(=O)O` (stereo not given), the relative growth was inactive: 1.02. Then `C[C@@H]1CCCCO[C@H](CN(C)C(=O)Nc2ccc(C(F)(F)F)cc2)[C@H](C)CN([C@@H](C)CO)C(=O)c2cc(NC(=O)c3ccccc3)ccc2O1`, with inactive: 1.02; and `C[C@H]1CCCCO[C@@H](CN(C)S(=O)(=O)c2cn(C)cn2)[C@@H](C)CN([C@@H](C)CO)C(=O)c2cc(NS(=O)(=O)c3cn(C)cn3)ccc2O1`, with inactive: 0.974. Take `Nc1nonc1C(=O)OCC(=O)c1ccccc1`: the relative growth was inactive: 1.03. For the compound `C[C@@H]1CN([C@@H](C)CO)C(=O)c2cccc(NS(C)(=O)=O)c2O[C@@H]1CN(C)Cc1ccc(C(F)(F)F)cc1`, the relative growth was inactive: 0.992. Then `CC[C@H]1OC(=O)C[C@@H](O)[C@H](C)[C@@H](O[C@@H]2O[C@H](C)[C@@H](O[C@H]3C[C@@](C)(O)[C@@H](O)[C@H](C)O3)[C@H](N(C)C)[C@H]2O)[C@@H](CC=O)C[C@@H](C)C(=O)/C=C/C(C)=C/[C@@H]1CO[C@@H]1O[C@H](C)[C@@H](O)[C@@H](OC)[C@H]1OC`, with inactive: 0.971.

With `CC(=O)N[C@@H](Cc1ccc(F)cc1)C(=O)O`, the relative growth was inactive: 0.99. Then `Cc1ccc(S(=O)(=O)N[C@H]2CC[C@@H](CC(=O)N3CCC(Cc4ccccc4)CC3)O[C@@H]2CO)cc1`, with inactive: 1.02. The result for `COc1cc2c(cc1OC)CC(=O)N(CCCN(C)CC1Cc3cc(OC)c(OC)cc31)CC2.Cl` (stereo not given) reads inactive: 0.99; that for `COc1ccc(CN(C)C[C@@H]2Oc3ccc(NS(=O)(=O)c4cn(C)cn4)cc3CC(=O)N([C@H](C)CO)C[C@@H]2C)cc1`, inactive: 1.01. For the compound `C[C@@H]1CN([C@@H](C)CO)S(=O)(=O)c2ccc(C#CC3(O)CCCC3)cc2O[C@@H]1CN(C)C(=O)Nc1ccccc1`, the relative growth is inactive: 0.994.

For the compound `C[C@@H]1CN([C@H](C)CO)C(=O)Cc2cc(NC(=O)Nc3cccc4ccccc34)ccc2O[C@@H]1CN(C)C(=O)Nc1ccc(C(F)(F)F)cc1`, the relative growth is inactive: 1.04.

Regarding `CC#CC[C@@H](C)[C@H](O)/C=C/[C@@H]1[C@H]2C/C(=C/CCCC(=O)O)C[C@H]2C[C@H]1O`, the relative growth was inactive: 0.977. The result for `C[C@H](CO)N1C[C@H](C)[C@H](CN(C)S(=O)(=O)c2ccc(F)cc2)Oc2ccc(NS(=O)(=O)c3cccs3)cc2CC1=O` reads inactive: 0.993; that for `COc1ccc(C#Cc2ccc3c(c2)O[C@H](CN(C)C(=O)CN2CCOCC2)[C@H](C)CN([C@@H](C)CO)S3(=O)=O)cc1`, inactive: 1.02; that for `CN(C)Cc1c(C(=O)N/N=C/c2ccncc2)nnn1-c1nonc1N`, inactive: 0.989. Then `COc1ccc(NC(=O)N(C)C[C@H]2OCCCC[C@H](C)Oc3ccc(NS(=O)(=O)c4ccccc4)cc3C(=O)N([C@@H](C)CO)C[C@H]2C)cc1`, with inactive: 0.966; and `C[C@@H]1CN([C@H](C)CO)S(=O)(=O)c2ccc(-c3ccc(F)cc3)cc2O[C@H]1CN(C)S(C)(=O)=O`, with inactive: 1.01.

Take `COc1ccc(S(=O)(=O)Nc2ccc3c(c2)CC(=O)N([C@@H](C)CO)C[C@H](C)[C@@H](CN(C)C(=O)Nc2c(C)noc2C)O3)cc1`: the relative growth is inactive: 1.02. Regarding `Cc1ccc(-c2ccc3c(c2)O[C@@H](CN(C)Cc2cncnc2)[C@H](C)CN([C@@H](C)CO)S3(=O)=O)cc1`, the relative growth was inactive: 0.996. On to `COc1ccc(NC(=O)N(C)C[C@H]2Oc3ccc(NC(=O)CCN4CCOCC4)cc3CC(=O)N([C@H](C)CO)C[C@H]2C)cc1`, for which the relative growth is inactive: 0.972. Then `Cc1ccc(S(=O)(=O)N(C)C[C@H]2Oc3ccc(NC(=O)c4ccncc4)cc3CC(=O)N([C@H](C)CO)C[C@@H]2C)cc1`, with inactive: 1.02; and `C[C@@H]1O[C@@H](O[C@H]2[C@H](Oc3cc(O)c4c(=O)cc(-c5ccc(O)cc5)oc4c3)O[C@H](CO)[C@@H](O)[C@@H]2O)[C@H](O)[C@H](O)[C@H]1O`, with inactive: 0.981. For `Cc1noc(C)c1NC(=O)N[C@H]1C=C[C@@H](CC(=O)N2CCN(C)CC2)O[C@H]1CO`, the relative growth was inactive: 0.987. For the compound `C[C@@H]1CN([C@H](C)CO)C(=O)c2cccc(NC(=O)Nc3cccc4ccccc34)c2O[C@@H]1CN(C)Cc1ccc2c(c1)OCO2`, the relative growth was inactive: 1. As to `COc1ccccc1S(=O)(=O)N(C)C[C@H]1Oc2cc(C#CCC(C)C)ccc2S(=O)(=O)N([C@@H](C)CO)C[C@@H]1C`, the relative growth is inactive: 1.01. The result for `COc1ccc(S(=O)(=O)N(C)C[C@@H]2Oc3ccc(NS(=O)(=O)c4cn(C)cn4)cc3CC(=O)N([C@H](C)CO)C[C@@H]2C)cc1` reads inactive: 1.01; that for `C[C@@H]1CCCCO[C@H](CN(C)C(=O)c2ccncc2)[C@H](C)CN([C@@H](C)CO)C(=O)c2cc(NC(=O)NC3CCCCC3)ccc2O1`, inactive: 0.995. The result for `C[C@@H]1CN([C@H](C)CO)C(=O)c2cc(NC(=O)Cc3ccccc3)ccc2O[C@@H](C)CCCCO[C@@H]1CN(C)C(=O)Cc1ccccc1` reads inactive: 1.01; that for `C[C@H](CO)N1C[C@H](C)[C@H](CN(C)CC2CCCCC2)Oc2ccc(NC(=O)Nc3cccc4ccccc34)cc2CC1=O`, inactive: 1.02. Then `C[C@H]1CN([C@@H](C)CO)C(=O)c2cccc(NC(=O)c3ccc(-c4nccs4)cc3)c2O[C@H]1CN(C)CC1CCCCC1`, with inactive: 0.902. Regarding `C[C@@H]1CN([C@@H](C)CO)C(=O)c2cc(NC(=O)C3CCCCC3)ccc2O[C@@H](C)CCCCO[C@@H]1CN(C)S(=O)(=O)c1cccs1`, the relative growth is inactive: 1.02. The result for `Cn1nccc1CNC(=O)c1ccnn1C` reads inactive: 0.995; that for `C=COCCCCO`, inactive: 1. Turning to `Cc1n[nH]c(C)c1N`, the relative growth is inactive: 1.03. As to `C[C@H](CO)N1C[C@H](C)[C@@H](CN(C)C(=O)Nc2cccc3ccccc23)Oc2c(NC(=O)Nc3ccc(F)cc3)cccc2C1=O`, the relative growth is inactive: 0.986. Then `CO[C@@H]1CN(C)C(=O)c2cc(NS(=O)(=O)c3ccccc3C)ccc2OC[C@@H](C)N(S(C)(=O)=O)C[C@@H]1C`, with inactive: 1.03. Then `Cc1ccc(CN2CCN(CCO)CC2)o1`, with inactive: 0.905; and `COc1ccc(NC(=O)N(C)C[C@@H]2OCCCC[C@H](C)Oc3ccc(NC(=O)c4ccncc4)cc3C(=O)N([C@@H](C)CO)C[C@@H]2C)cc1`, with inactive: 0.991. The result for `C[C@H](CO)N1C[C@H](C)[C@H](CN(C)S(=O)(=O)c2cn(C)cn2)Oc2ncc(-c3cccc(F)c3)cc2C1=O` reads inactive: 0.97. As to `CO[C@@H]1CN(C)C(=O)c2cc(NC(=O)c3ccc(F)cc3)ccc2OC[C@H](C)N(C(=O)CN(C)C)C[C@@H]1C`, the relative growth was inactive: 1. Then `C[C@@H]1CN([C@@H](C)CO)C(=O)CCCn2nncc2CO[C@@H]1CN(C)Cc1cccc2c1OCCCO2`, with inactive: 0.992; and `CC(=O)N(C)C[C@@H]1Oc2cc(C#CCN(C)C)ccc2S(=O)(=O)N([C@H](C)CO)C[C@H]1C`, with inactive: 1. Regarding `C[C@H](CO)N1C[C@H](C)[C@H](CN(C)C(=O)Nc2ccc3c(c2)OCO3)Oc2c(NC(=O)c3ccncc3)cccc2C1=O`, the relative growth was inactive: 0.99. On to `COCC(=O)N1CC(=O)N2[C@@H](CO)[C@H](c3ccc(C#Cc4cccnc4)cc3)[C@@H]2C1`, for which the relative growth is inactive: 1.

With `CNc1ccc(-c2nc(N3CCOCC3)c3sc(CN(C)c4ncc(C(=O)NO)cn4)cc3n2)cn1`, the relative growth is inactive: 0.802.

For the origin of these results see the supplement of paper PMC9446081.
